Laboratory results taken from PubChem BioAssay (NCI).
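Tested at 5 concentrations; 48 h exposure; 96-well plates; endpoints linearly interpolated, else capped at highest concentration. GI50 is the concentration that inhibits growth by half. TGI: total growth inhibition.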 Peptide text beside a SMILES is read from it. * marks the point of attachment. Trt = c1ccc(C(c2ccccc2)(c2ccccc2)*)cc1; Cbz = O=C(OCc1ccccc1)*

The compounds below were run on NCI-H322M lung (assay: growth of human tumour cells (NCI), 48 h).

Row | SMILES | TGI | GI50
1 | CCOC(=O)c1cc(Br)c(-c2cc(C)co2)[nH]1 | > 100 µM | –
2 | C=C(C)[C@@H]1CC[C@]2(C(=O)NC(C)=O)CC[C@]3(C)[C@H](CC[C@@H]4[C@@]5(C)CCCNC(C)(C)[C@@H]5CC[C@]43C)[C@@H]12 | 2.89 µM | 1.55 µM
3 | CC(C)c1ccc(/C=C2\CSCC3=C2N=C2SCC(=O)N2C3c2ccc(C(C)C)cc2)cc1 (centres undefined) | > 100 µM | –
4 | O=P(O)(O)CN1CCNCCN(CP(=O)(O)O)CC1 | > 100 µM | –
5 | COC(=O)C(C(=O)C(N)=O)c1csc(-n2nc(-c3ccccc3)cc2-c2ccccc2)n1 (centres undefined) | > 31.6 µM | –
6 | COc1ccc(NC(=O)C2C(=O)N(c3ccc(OC)cc3)C(=O)/C2=N\NC(N)=O)cc1 (centres undefined) | > 100 µM | –
7 | CC(=O)NC1C(OCc2ccccc2)OC(CO)C(O)C1OCC(=O)N[C@@H](C)C(=O)N[C@H](CCC(=O)NCCCNc1ccc([N+](=O)[O-])c2[nH]c3ccccc3c(=O)c12)C(N)=O (some centres undefined) | > 100 µM | –
8 | CC(C)(C)Sc1nnc(SC(C)(C)C)c2c(=O)[nH]nc(SC(C)(C)C)c12 | 25 µM | –
9 | O=C(c1ccc2ccccc2c1)c1c(C(F)(F)F)n([O-])c2ccc(F)cc2[n+]1=O | 4.54 µM | 2.02 µM
10 | COC(=O)C(CSC(c1ccccc1)(c1ccccc1)c1ccccc1)NC(=O)C(CC(N)=O)NC(=O)OCc1ccccc1 (stereo not drawn) (Cbz-Asn-Cys(Trt)-OMe; configuration not given here) | 25.5 µM | 3.84 µM
11 | CN(C)CCCNC(=O)c1cn2c(ccc3sc4ccccc4c(=O)c32)n1 | 21.5 µM | –
12 | Nc1c(C(=O)Nc2cccc3ccccc23)sc2nc3c(cc12)C(=O)CCC3 | > 89.1 µM | 0.584 µM
13 | COc1cc(Cn2c(-c3ccccc3)cc3c2-c2oncc2CC3)cc(OC)c1 | > 100 µM | 0.336 µM
14 | NS(=O)(=O)c1ccc(N=Nc2ccc(O)c(C(=O)O)c2)cc1 | > 100 µM | –
15 | CCOC(=O)CC(NC(=O)c1ccc(N=NN(C)C)cc1)C(=O)OCC (centres undefined) | > 100 µM | –
16 | COc1ccc2c(c1)c1c3n2CCNN=C3CCC1 | > 100 µM | –
17 | COc1ccc(-n2cnc3c(NC(Cc4ccccc4)C(=O)O)ncnc32)cc1 (centres undefined) | > 100 µM | –
18 | NN/C(=N\S(=O)(=O)c1ccc(S(=O)(=O)c2ccccc2)s1)Nc1ccc(Cl)cc1 | > 100 µM | –
19 | CN/N=C(\C(=O)Nc1ccc(C)c(C)c1)C(C(=O)OC)c1nc2ccc([N+](=O)[O-])cc2[nH]c1=O (centres undefined) | > 100 µM | –
20 | COc1ccc2c(c1)/C(=N/OC(C)=O)c1c-2cnc2ccccc12 | 88.3 µM | 29.4 µM
21 | O=C1C(c2c(O)[nH]c3ccc(S(=O)(=O)NCCO)cc23)=Nc2ccccc21 | 97.6 µM | –
22 | c1ccc(-c2ccnc3c2ccc2c(-c4ccccc4)ccnc23)cc1 | 6.14 µM | –
23 | CCOC(=O)c1c(C)n(Cc2ccccc2)c2c1cc1oc(=O)c(=O)n3cnc2c13 | > 50 µM | 27.8 µM

Row | SMILES | TGI | GI50
24 | O=C(NCCCCCN1CCC2(CCCCC2)CC1)C(C1CCCCC1)C1CCCCC1 | 12.6 µM | –
25 | NS(=O)(=O)c1ccc(NC(=O)c2cccc(NC3=C(Cl)C(=O)N(Cc4ccccc4)C3=O)c2)cc1 | 29.1 µM | 14.7 µM
26 | O=S1(=O)c2ccccc2N=C(c2ccccc2Cl)CC1c1ccc(F)cc1 (centres undefined) | 40.6 µM | –
27 | Cc1cc(Nc2nc(-c3ccncc3)nc3ccccc23)n[nH]1 | > 100 µM | 33.4 µM
28 | O=S(=O)(O)c1ccc2c(N=Nc3ccc(Sc4ccc(N=Nc5c(O)ccc6cc(S(=O)(=O)O)ccc56)cc4)cc3)c(O)ccc2c1 | > 100 µM | –
29 | Cc1c(Cl)c(C)c(Cc2c(C)c(Cl)c(C)c(Cl)c2O)c(O)c1Cl | 12.3 µM | 3.56 µM
30 | CC(C)=NOC(=O)Nc1cccc2c1OCO2 | > 100 µM | –
31 | COc1cc(/C=N/NC(=O)c2ccccc2Nc2cccc(C(F)(F)F)c2)cc(OC)c1OC | 29.1 µM | 4.49 µM
32 | S=c1c2ccccc2c(=S)n2n1CC=CC2 | > 100 µM | –
33 | CC(NC(=O)C(Cc1ccc(OC(=O)c2ccccc2)cc1)NC(=O)OC(C)(C)C)C(=O)NCC(=O)NC(Cc1ccccc1)C(=O)NN (centres undefined) | > 100 µM | –
34 | CCN(CC)CCO[Si](OCCN(CC)CC)(OCCN(CC)CC)OCCN(CC)CC | > 100 µM | –
35 | COc1ccc(C2=NC(c3ccc(Cl)cc3)C(c3ccc(Cl)cc3)N2C(=O)N2CCNC(=O)C2)c(OC(C)C)c1 (centres undefined) | 3.71 µM | 1.99 µM
36 | Cc1noc(/N=C2\C=C(Nc3onc(C)c3C)C(=O)c3ccccc32)c1C | > 100 µM | –
37 | NNC(=O)C(O)C(O)C(=O)NN (centres undefined) | > 100 µM | –
38 | CC(=O)OC(=O)O/C=C\CCl | > 100 µM | –
39 | CC/C(=C\c1ccc(OC)cc1)c1ccc(OC)cc1 | > 100 µM | –
40 | COc1cc(/C=N/NC2=NCCN2)ccc1O | > 100 µM | –
41 | CC(/C=N/N=C(N)N)=N\N=C(N)N | 122 µM | 13 µM
42 | O=CCCCC(Sc1ccccc1)Sc1ccccc1 | > 100 µM | –
43 | CCOc1cc2c(cc1O)C(N)C[C@@H]1[C@@H]2CC[C@]2(C)[C@@H](O)CC[C@@H]12 (some centres undefined) | > 100 µM | –
44 | CN1CN(C(=O)N2CN(C)C(=O)N(C)C2)CN(C)C1=O | > 100 µM | –
45 | Nc1ccn(C2OC(C(OC3OC(CO)C(O)C(N)C3O)C(O)C(O)C(O)C(O)CO)C(N)C(O)C2O)c(=O)n1 (centres undefined) | > 100 µM | –
46 | Cc1ccc(-c2n[nH]c(=O)c3noc(-c4ccc(C)cc4)c23)cc1 | 36.8 µM | 5.06 µM

Row | SMILES | TGI | GI50
47 | c1ccc(-c2nnc3nn4c(-c5ccccc5)cnnc4c3c2-c2ccccc2)cc1 | > 100 µM | –
48 | O=C(Nc1nc2ccccc2s1)c1cc(-c2ccc(F)cc2)n2nc(-c3ccccc3)cc2n1 | > 100 µM | 5.84 µM
49 | CCNC(=S)N/N=C(\C)c1cccc(C)n1 | > 100 µM | –
50 | CC[C@@]1(O)C(=O)OCc2c1cc1n(c2=O)Cc2c-1nc1ccccc1c2/C=N\NC(=O)C(N)Cc1c[nH]c2ccccc12 (some centres undefined) | > 82.2 µM | –
51 | O=Cc1ccc(N2CCN(c3ccc(C=O)cc3)CC2)cc1 | > 100 µM | > 100 µM
52 | O=c1cc(N2CCCC2)[nH]c(=O)n1-c1ccc(Cl)cc1 | > 100 µM | –
53 | C/C(=N/O)c1ccc(Nc2cc(-n3ccnc3)c3ccccc3n2)cc1 | > 100 µM | 21.8 µM
54 | CCc1cc(Cc2ccc(C)c(NC(=O)C(=O)C3C(=O)NC(=O)NC3=O)c2CC)cc(C)c1NC(=O)C(=O)C1C(=O)NC(=O)NC1=O | > 100 µM | –
55 | Nc1cc2c3c(cccc3c1)C(=O)N(c1ccc(OCCN3CCCC3)cc1)C2=O | 50.3 µM | –
56 | O=C(Nc1ccc(Cl)cc1)c1cc(S(=O)(=O)Nc2n[nH]c(=O)n2-c2ccccc2)c(S)cc1Cl | > 100 µM | –
57 | CC(=O)Nc1ccc(-c2nnc(SCC(=O)Nc3ccc(Cl)cc3)o2)cc1 | 29.6 µM | –
58 | CCOC(C)OC1CC(n2cc(C)c(=O)[nH]c2=O)OC1CO (centres undefined) | > 100 µM | –
59 | O=C1C=Cc2ncccc2C1=O | > 52.5 µM | –
60 | C[C@H](CCC(=O)NCC(=O)O)[C@H]1CC[C@H]2[C@@H]3[C@H](O)C[C@@H]4C[C@H](O)CC[C@]4(C)[C@H]3CC[C@]12C | > 100 µM | –
61 | C=C1C(=O)OC2C3OC(C)(CCC(O)C3COC(C)=O)CC(OC(=O)/C(=C/C)COC(C)=O)C12 (centres undefined) | 22.9 µM | –
62 | C=CCNC(=S)/N=C/C(C(=O)Nc1ccccc1C)=C(\C)O | > 100 µM | –
63 | Cc1ccc(S(=NS(=O)(=O)c2ccc(C)cc2)c2ccc(C)cc2)cc1 | > 100 µM | –
64 | CC(C)(C)C1=C(Br)C(OC(=O)C(F)(F)F)(C(C)(C)C)OP1(=O)c1ccccc1 (centres undefined) | > 100 µM | –
65 | COc1ccc(CNc2nc3ccccc3nc2C(=O)O)cc1 | > 100 µM | –
66 | C=C1CC2[C@H](C)C(=O)CCC2(C)C2=C1C1CCC(C(C)CCC(=C)C(C)C(=O)O)C1(C)CC2=O (some centres undefined) | > 100 µM | –
67 | C=CC[C@H](N=C(SC)SC)C(=O)N1C(=O)N(C)[C@@H](C)[C@H]1c1ccccc1 | > 100 µM | –
